Data published in PubChem BioAssay AID1508624 (National Center for Advancing Translational Sciences (NCATS), 2021).
Among all 48,000 compounds or so, about 120 (0.25%) were called active. Inconclusive results (about 4%) are left out. Calls follow the shape of the dose curve; as a rule, active = well fitted activation curve with a large enough effect; inconclusive = small, poorly fitted or top-dose-only effect, or another doubt; inactive = no such curve, though single readings can be large or run the other way. The list shows a part of the results.

Test: Primary qHTS for Identification of Small Molecule Activators of Huntingtin-Antisense Promoter Activity; also: nearly all actives have a fitted effect of over 55% in size
Conditions: HEK293 HTT-AS promoter firefly luciferase reporter, 24 h; series mostly up to 57.5 µM; activity change, positive = activation: at the top concentration
Procedure, shortened: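 HEK293 cells carrying firefly luciferase reporters were seeded at 2,500 per well in Opti-MEM and cultured for 24 h. They were then treated with compounds at up to 57.5 uM final for 24 h at 37 degrees C before Dual-Glo luminescence readout.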

Activity change, positive = activation, inactive:
Cc1ccc(NC(=O)c2cnn3c2NC(c2ccccc2)=CC3c2ccccc2)cc1 (configuration not stated) -13.3%, CCCn1c2ccccc2c2nnc(SCC(=O)Nc3cccc(C(C)=O)c3)nc21 -27.5%, CCN(Cc1ccccc1)C(=O)c1cnn(-c2ccc(F)cc2)c1-n1cccc1 -30.7%, CCC(Sc1nnc(C)n2c1cc1occc12)C(=O)Nc1ccccc1OC (configuration not stated) -18.3%, COc1ccccc1OC(C)C(=O)Nc1cccc(-c2nc3ccccc3o2)c1 (configuration not stated) 7.81%, CC(=O)c1ccc(NC(=O)Cn2nc(N3CCN(c4ccccc4)CC3)ccc2=O)cc1 -12.6%, CC(=O)c1sc(N2C(=O)c3oc4ccccc4c(=O)c3C2c2ccc(C)cc2)nc1C (configuration not stated) -4.97% [at 11.5 µM, percent change from vehicle, -100% = no light], CCCSc1nc2c([nH]c3ccccc32)c(=O)n1C -8.71%, O=C(NCc1cccnc1)c1nn(-c2ccc(F)cc2)nc1CO -21.5%, COc1ccccc1CNC(=O)CSC1=Nc2ccccc2N=C(c2ccc(F)cc2)C1 -33.3%, CCc1ccc(NS(=O)(=O)c2ccc3[nH]cc(C(=O)NCCCOC(C)C)c(=O)c3c2)cc1 -22.4%, Cc1ccc(Cl)cc1N1CCN(S(=O)(=O)c2ccc3c(c2)CCN3C(=O)C2CCC2)CC1 -8.42%, Cc1coc2c1C(=O)C(=O)c1c-2ccc2c(C)cccc12 -22.5%, CC(C)c1nc2ccc(C(=O)Nc3ccccc3F)cc2o1 -37.9%, COc1ccc(NC(=O)CCCn2nc(C)c3sc4ccccc4c3c2=O)cc1 -3.35%, COc1ccc(S(=O)(=O)NCCSc2nnnn2-c2ccccc2)cc1 -14.9%, COc1ccc(-c2nc(CSCC(=O)N3CCN(c4ccc(F)cc4)CC3)c(C)o2)cc1 -51%, CCN(Cc1ccccc1)S(=O)(=O)c1ccc(-c2coc(C)n2)cc1 -26.9%, Cc1cc(-n2c(C)nc3ccccc3c2=O)ccc1NC(=O)C(F)(F)F -6.52%, O=C(Cn1ncc2c3ccccc3n(Cc3ccc(F)cc3)c2c1=O)NCc1cccs1 -4.39%, CC(CNC(=O)c1ccc2nc(Cc3ccccc3)oc2c1)c1ccccc1 (configuration not stated) -14.9%, Cc1cccc(Cc2c(C)nc3c(-c4ccccc4)c(C)[nH]n3c2=O)c1 -58.2%, CC1CCCN(S(=O)(=O)c2ccc3c(c2)CCN3C(=O)CCC(=O)O)C1 (configuration not stated) -5.26%, COc1ccc(NS(=O)(=O)c2ccc3nc(-c4ccccc4)[nH]c3c2)cc1 -34.5%, Cc1cc(C(=O)Nc2ccc(-n3c(C)nc4ccccc4c3=O)cc2)ccc1[N+](=O)[O-] -12.6%, O=C(O)c1ccccc1-c1ccc(C(F)(F)F)cc1 -2.83%, O=C(CSc1nnc(-c2ccc(F)cc2)o1)N1CCCc2ccccc21 -10.5%
